# Measurements as given in article PMC10668032.
# This is one part of the list. At the low end of the ranking the order means little.
# Molecular target: SIX1-Q177R homeodomain (UniProt Q15475)
# Experiment: universal protein binding microarray
# Conditions: Universal all-10-mer PBM (8x60K, AMADID 030236), 300 nM GST-tagged protein, Alexa Fluor 488 anti-GST; buffer, salt, pH and temperature not stated; high values mean tight binding; most listed sequences are background and not binding sites; double strand, one strand shown
row,Sequence,binding signal [E-score]
1,AACCACAA,-0.0988
2,GCTGGAAC,-0.151
3,AGTGAGTG,0.0511
4,CTCACGAA,-0.0654
5,AAAATCCC,0.00921
6,GTGACGTA,-0.151
7,CCGTCGGA,0.0135
8,GGCCCTTA,-0.091
9,CATCGAAC,-0.0275
10,AACCCCTG,0.0584
11,CCAGTCTA,-0.0512
12,AAAGACGA,-0.212
13,ACGAATAA,0.0271
14,GGCGTACC,0.19
15,CGACTGCC,-0.0414
16,CGGGCTGC,0.00345
17,GAACGTTC,-0.233
18,ACTCTCTA,-0.0184
19,CTCTCAGC,-0.172
20,GAGCAGAC,-0.227
21,GCAATGTA,-0.0399
22,CTGAGTGA,-0.0863
23,ACCGATAC,0.268
24,CGGATGAG,0.0224
25,ATGCCACC,0.113

row,Sequence,binding signal [E-score]
1,CAGACATG,-0.0941
2,CAGTTGAC,0.0323
3,ACCAAGGC,0.0741
4,CCCTTTCG,-0.0919
5,ATGGCTTA,-0.133
6,ACCTATTG,0.00187
7,GAACTAGC,-0.0871
8,GGATAGGA,-0.061
9,AGCCTACA,0.0664
10,CCCTAATC,-0.0285
11,CAATCCAC,0.168
12,ACTGTGGC,-0.0502
13,GTAGCACA,0.00619
14,AAAGCCAG,-0.00808
15,GGCCTCCA,-0.122
16,AAACCGTC,-0.0487
17,TGACATCA,-0.159
18,AACGTCCA,-0.157
19,GGGCGGAC,-0.00302
20,CTTGCTTC,-0.147
21,CGCGTTCA,0.0202
22,AACGCTCT,-0.11
23,GACAGTGC,-0.121
24,CGTTTAAA,-0.232
25,ATTTGGCG,-0.0528

row,Sequence,binding signal [E-score]
1,GCAATTCC,-0.125
2,AGCGTTTG,-0.206
3,CCAGCTCG,0.012
4,CGCTCCCG,-0.0443
5,CGATATAC,0.00812
6,GAATATCA,-0.0698
7,CGACTCGA,0.0542
8,ACACAGGG,0.158
9,TCGGAGCA,-0.175
10,CTAGGAAG,-0.0432
11,ACTATACG,0.178
12,GTCCAGGA,-0.0739
13,GCATGTGA,-0.276
14,CCAATTCC,-0.0091
15,ACTCGCCG,0.0929
16,AGATGCTA,-0.172
17,ACCTAACG,-0.0343
18,ATCGCTCG,0.0232
19,ATGGAATC,-0.101
20,AATTCAAC,-0.133
21,CAGAGCGG,-0.091
22,CTTGAGGC,-0.147
23,AGGAGATC,-0.0983
24,AATGCTTG,-0.248
25,ACGAACTC,0.111

row,Sequence,binding signal [E-score]
1,GGAGTGCC,-0.0693
2,CAAAAGAC,-0.142
3,AGATCGCC,-0.127
4,GTGTCAGA,0.453
5,AGAAAGGG,0.0538
6,GCACCTTA,0.0994
7,ATTTTGAA,-0.17
8,CCCCACAG,0.172
9,ATGGGCTG,-0.0771
10,CTCTGTCA,-0.258
11,GTCGGTCA,-0.218
12,CGCTGACC,-0.121
13,CCGATTAA,-0.15
14,ACACCTCT,0.467
15,AAGCCCGT,-0.101
16,GCCTACCC,0.106
17,ATATGTCC,-0.0922
18,GCATAATA,-0.0596
19,GAGACCAA,-0.248
20,GCACGGAC,0.0792
21,GCCTTTAA,-0.193
22,AGTGACGC,0.00605
23,AGGGAATC,0.068
24,AAAACTAA,-0.162
25,CAACGACC,-0.0259

row,Sequence,binding signal [E-score]
1,AGCTTCCT,-0.274
2,ACTTCCTG,-0.102
3,AATCGTGC,-0.0483
4,ACAGCGGC,-0.296
5,CCGCGAGC,-0.106
6,GAACGGTC,-0.0495
7,CGGCTTAG,-0.127
8,ACCGACAA,-0.167
9,CATCGATC,-0.173
10,AGTAAGCC,-0.13
11,CCAGCCTC,-0.215
12,GCTCCTCC,-0.134
13,GAAAGACA,0.0194
14,AGTAGTAT,0.104
15,AACAGCGA,-0.121
16,CCCCGAGC,0.198
17,AGGGTCCA,0.0449
18,TCCCGAAA,-0.159
19,CGCAGTCA,-0.0602
20,CATCTTCG,-0.193
21,GTTTGATA,-0.0259
22,TCAGAGGA,-0.174
23,GTTGATCA,-0.0791
24,GCCTGCCA,-0.309
25,CCAGTTCA,-0.209

row,Sequence,binding signal [E-score]
1,ACAATTTA,-0.0701
2,ACACTCCC,0.404
3,AGGAACGA,-0.0133
4,CGCGACAC,0.436
5,AAATGAGT,-0.0823
6,AGTATTCA,-0.125
7,CTAGCCAA,-0.0738
8,CGTGAAAG,-0.0789
9,CTACCACC,0.183
10,ATGGCGCC,-0.105
11,AATCGTAT,-0.0269
12,GACGAAGC,-0.0886
13,CTGATCCA,0.124
14,CTGCCGAC,0.0614
15,ACCGAAGA,-0.0813
16,GTAGAGGA,0.0423
17,CGGGCAGA,0.0218
18,CTACTGCC,-0.173
19,GACTTTTA,-0.0872
20,CTCGATCC,0.201
21,TCGAATCA,-0.137
22,CATAGAGA,-0.259
23,CTAAGCAG,-0.0605
24,GCAAGGGA,-0.26
25,AATCTAGC,0.00747

row,Sequence,binding signal [E-score]
1,ACATCGTG,0.151
2,TCATTCCA,-0.188
3,CTACTCGA,-0.0212
4,CCCGTGCA,0.13
5,GCCTATGA,-0.0468
6,GACACAAC,0.207
7,AGCTCCCA,-0.0501
8,CCCTACCA,0.167
9,GCGCAAGA,-0.132
10,GGAGCCCC,0.0175
11,CACGGAAG,0.133
12,AATATGTG,-0.0184
13,ACATTCTG,-0.191
14,GTCGGATA,0.292
15,CAGGCGGA,0.0253
16,CACACCAC,0.442
17,AAATCTTC,-0.234
18,AGGCTACA,0.0808
19,ATCAAATG,-0.139
20,CCTTTATA,-0.046
21,CTCTACGC,-0.0861
22,GCGTCCTA,0.168
